The other results are listed elsewhere or left out. Many values rest on one well or one pass, so single values are uncertain.
What follows are molecules tested on WM3619 (assay: cell count relative to DMSO control; melanoma cells; higher = more viable cells). Details: library dose: low library concentration; 72 h.
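Further: cell number obtained by counting DAPI-stained nuclei in high-throughput microscope images with image analysis software, screen run in 1,536-well plates.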

**Q.** With `C=CCNC1=C2C[C@@H](C)C[C@H](OC)[C@H](O)[C@@H](C)/C=C(\C)[C@H](OC(N)=O)[C@@H](OC)/C=C\C=C(/C)C(=O)NC(=CC1=O)C2=O` [Tanespimycin] + COC(=O)c1sccc1S(=O)(=O)Nc1ccc(Nc2ccccc2)cc1OC [GSK0660] (first compound 0.002 µM, partner dose 1 µM) as the molecule, how does the cell count read?
**A.** Its cell count is 83.5%.

**Q.** `C[C@@H](Oc1cc(-c2cnn(C3CCNCC3)c2)cnc1N)c1c(Cl)ccc(F)c1Cl` [Crizotinib] + O=C(O)C(=O)Nc1sc2c(c1C(=O)O)CCNC2 [TCS401] (first compound 0.2 µM, partner dose 1.66667 µM) was tested. Which cell count did it give?
**A.** The cell count was 119%.

**Q.** Which cell count does the source give for `CS(=O)(=O)CCNCc1ccc(-c2ccc3ncnc(Nc4ccc(OCc5cccc(F)c5)c(Cl)c4)c3c2)o1` [lapatinib] + COc1cc(Nc2ncc(F)c(Nc3ccc4c(n3)NC(=O)C(C)(C)O4)n2)cc(OC)c1OC [Tamatinib] (first compound 0.8 µM, partner dose 0.4 µM) here?
**A.** The cell count was 89%.

**Q.** With `C[C@@H](Oc1cc(-c2cnn(C3CCNCC3)c2)cnc1N)c1c(Cl)ccc(F)c1Cl` [Crizotinib] + CO[C@H]1C[C@@H]2CC[C@@H](C)[C@@](O)(O2)C(=O)C(=O)N2CCCC[C@H]2C(=O)O[C@H]([C@H](C)C[C@@H]2CC[C@@H](OCCO)[C@H](OC)C2)CC(=O)[C@H](C)/C=C(\C)[C@@H](O)[C@@H](OC)C(=O)[C@H](C)C[C@H](C)/C=C/C=C/C=C/1C [everolimus] (first compound 0.2 µM, partner dose 0.02 µM) as the molecule, how does the cell count read?
**A.** The cell count was 73.6%.

**Q.** With `CN1CCN(c2ccc3nc(-c4c(N)c5c(F)cccc5[nH]c4=O)[nH]c3c2)CC1` [Dovitinib] + C[C@]1(c2nc3c(C(N)=O)cccc3[nH]2)CCCN1 [Veliparib] (first compound 0.1 µM, partner dose 1.4 µM) as the molecule, how does the cell count read?
**A.** The cell count was 108%.

**Q.** `C[C@@H](Oc1cc(-c2cnn(C3CCNCC3)c2)cnc1N)c1c(Cl)ccc(F)c1Cl` [Crizotinib] + O=C1NC(=O)/C(=C/c2ccc(-c3ccc(F)cc3O)o2)S1 [AS252424] (first compound 0.2 µM, partner dose 1 µM) was tested. Which cell count did it give?
**A.** Its cell count is 83.7%.

**Q.** For `CS(=O)(=O)CCNCc1ccc(-c2ccc3ncnc(Nc4ccc(OCc5cccc(F)c5)c(Cl)c4)c3c2)o1` [lapatinib] + O=C1NC(=O)/C(=C/c2ccc(-c3ccc(F)cc3O)o2)S1 [AS252424] (first compound 0.8 µM, partner dose 1 µM), which cell count is on record?
**A.** Its cell count is 84.7%.

**Q.** How did the cell count turn out when `CN1CCN(c2ccc3nc(-c4c(N)c5c(F)cccc5[nH]c4=O)[nH]c3c2)CC1` [Dovitinib] + CN(NC(=O)CC(=O)NN(C)C(=S)c1ccccc1)C(=S)c1ccccc1 [STA4783] (first compound 0.1 µM, partner dose 0.006 µM) was run?
**A.** Its cell count is 76.1%.

**Q.** How did the cell count turn out when `C[C@@H](Oc1cc(-c2cnn(C3CCNCC3)c2)cnc1N)c1c(Cl)ccc(F)c1Cl` [Crizotinib] + CNC(=O)c1cc(Oc2ccc(NC(=O)Nc3ccc(Cl)c(C(F)(F)F)c3)cc2)ccn1 [sorafenib] (first compound 0.2 µM, partner dose 0.4 µM) was run?
**A.** Its cell count is 96.9%.

**Q.** For `CS(=O)(=O)CCNCc1ccc(-c2ccc3ncnc(Nc4ccc(OCc5cccc(F)c5)c(Cl)c4)c3c2)o1` [lapatinib] + CCc1ccc(CCOc2ccc(CC3SC(=O)NC3=O)cc2)nc1 [pioglitazone] (first compound 0.8 µM, partner dose 2 µM), which cell count is on record?
**A.** Its cell count is 82.5%.

**Q.** With `C[C@@H](Oc1cc(-c2cnn(C3CCNCC3)c2)cnc1N)c1c(Cl)ccc(F)c1Cl` [Crizotinib] + CCN(CC)CCCCNc1ncc2cc(-c3cc(OC)cc(OC)c3)c(NC(=O)NC(C)(C)C)nc2n1 [PD173074] (first compound 0.2 µM, partner dose 0.1 µM) as the molecule, how does the cell count read?
**A.** The cell count was 92.3%.

**Q.** For `C[C@@H](Oc1cc(-c2cnn(C3CCNCC3)c2)cnc1N)c1c(Cl)ccc(F)c1Cl` [Crizotinib] + CC(C)(C)c1cnc(CSc2cnc(NC(=O)C3CCNCC3)s2)o1 [SNS-032] (first compound 0.2 µM, partner dose 0.01 µM), which cell count is on record?
**A.** The cell count was 101%.

**Q.** `CNC(=O)c1cc(Oc2ccc(NC(=O)Nc3ccc(Cl)c(C(F)(F)F)c3)cc2)ccn1` [sorafenib] + NC(=O)Nc1cc(-c2cccc(F)c2)sc1C(=O)N[C@H]1CCCNC1 [AZD7762] (first compound 0.4 µM, partner dose 0.02 µM) was tested. Which cell count did it give?
**A.** Its cell count is 86.6%.

Source: the supplement of paper PMC4604168 (melanoma cell lines)
